Results are given in words; binding and its absence hold for the method and conditions named. For some of these results: Binding seen in cells or lysates may run through a third protein. Some entries that bind do so weakly or less than the wild type. For some of these results: Tags and fused reporters may be left off the sequences shown.

For assay [1], the target named is T1, Npa2p-FPZ (S. cerevisiae) (UniProt P47108).
T1 sequence: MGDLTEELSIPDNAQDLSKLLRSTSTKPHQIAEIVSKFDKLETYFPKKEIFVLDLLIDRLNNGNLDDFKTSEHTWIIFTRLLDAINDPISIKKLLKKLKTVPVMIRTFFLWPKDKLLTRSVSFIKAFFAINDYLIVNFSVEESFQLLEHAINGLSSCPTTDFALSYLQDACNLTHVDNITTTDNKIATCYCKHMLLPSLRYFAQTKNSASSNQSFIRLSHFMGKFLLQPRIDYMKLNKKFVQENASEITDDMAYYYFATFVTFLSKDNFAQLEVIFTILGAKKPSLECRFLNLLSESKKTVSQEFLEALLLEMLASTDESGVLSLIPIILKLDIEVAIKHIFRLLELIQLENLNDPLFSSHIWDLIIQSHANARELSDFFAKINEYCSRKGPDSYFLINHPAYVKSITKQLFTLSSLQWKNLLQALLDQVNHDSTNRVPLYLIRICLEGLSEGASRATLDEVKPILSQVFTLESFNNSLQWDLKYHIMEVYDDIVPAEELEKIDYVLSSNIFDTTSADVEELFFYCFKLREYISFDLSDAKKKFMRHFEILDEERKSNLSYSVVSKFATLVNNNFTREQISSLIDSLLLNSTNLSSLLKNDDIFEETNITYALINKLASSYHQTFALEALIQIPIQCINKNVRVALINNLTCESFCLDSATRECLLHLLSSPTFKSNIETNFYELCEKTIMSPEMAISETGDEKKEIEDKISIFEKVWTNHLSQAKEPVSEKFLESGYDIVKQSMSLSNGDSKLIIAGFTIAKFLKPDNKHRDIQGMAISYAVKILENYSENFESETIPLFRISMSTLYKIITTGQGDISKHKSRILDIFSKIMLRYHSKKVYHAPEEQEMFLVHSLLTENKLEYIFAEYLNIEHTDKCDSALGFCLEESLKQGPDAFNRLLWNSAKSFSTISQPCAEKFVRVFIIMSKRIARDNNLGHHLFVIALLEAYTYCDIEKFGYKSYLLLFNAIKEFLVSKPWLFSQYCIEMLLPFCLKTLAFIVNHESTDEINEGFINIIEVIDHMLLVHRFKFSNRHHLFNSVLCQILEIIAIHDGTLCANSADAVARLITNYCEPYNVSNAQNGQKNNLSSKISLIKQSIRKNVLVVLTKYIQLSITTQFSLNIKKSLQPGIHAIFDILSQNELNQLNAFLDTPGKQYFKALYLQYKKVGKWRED
The assay can be described thus: co-IP; tandem affinity purification of the FPZ-tagged bait from yeast extract (IgG sepharose, PreScission protease, anti-Flag beads, Flag peptide elution); buffers with 10 mM MgCl2 and 150 mM NaCl, 4°C; Coomassie staining, Western; also rrn3/RSA3-FPZ cells at 24°C or shifted to 37°C for 6 hours, and cells depleted of Npa1p or Npa2p where binding is kept.

The target in assay [2] is T2, GST-Rsa3p (S. cerevisiae), Q05942.
T2 chain: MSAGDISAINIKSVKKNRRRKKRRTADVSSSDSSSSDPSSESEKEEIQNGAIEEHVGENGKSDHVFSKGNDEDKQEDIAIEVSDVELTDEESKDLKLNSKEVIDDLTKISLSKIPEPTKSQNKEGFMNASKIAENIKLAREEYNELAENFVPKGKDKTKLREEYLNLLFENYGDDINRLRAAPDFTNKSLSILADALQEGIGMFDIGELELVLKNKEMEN
As to the kind of experiment: condition: 2 μg of purified His-Dbp6p in 200 μl IP buffer; pull-down; 2 μg GST-tagged protein on glutathione magnetic beads, 2 μg His-Dbp6p in 200 μl IP buffer (50 mM Tris-HCl pH 8, 150 mM potassium chloride, 5 mM magnesium chloride, 0.2% Nonidet P-40), 1 h at 16°C; Western with anti-His; also after RNase A treatment; both purified. Particulars: remark: other sources report otherwise.

Assay [3] addresses T3, GST-Nop8p (S. cerevisiae) (UniProt Q08287).
T3 sequence: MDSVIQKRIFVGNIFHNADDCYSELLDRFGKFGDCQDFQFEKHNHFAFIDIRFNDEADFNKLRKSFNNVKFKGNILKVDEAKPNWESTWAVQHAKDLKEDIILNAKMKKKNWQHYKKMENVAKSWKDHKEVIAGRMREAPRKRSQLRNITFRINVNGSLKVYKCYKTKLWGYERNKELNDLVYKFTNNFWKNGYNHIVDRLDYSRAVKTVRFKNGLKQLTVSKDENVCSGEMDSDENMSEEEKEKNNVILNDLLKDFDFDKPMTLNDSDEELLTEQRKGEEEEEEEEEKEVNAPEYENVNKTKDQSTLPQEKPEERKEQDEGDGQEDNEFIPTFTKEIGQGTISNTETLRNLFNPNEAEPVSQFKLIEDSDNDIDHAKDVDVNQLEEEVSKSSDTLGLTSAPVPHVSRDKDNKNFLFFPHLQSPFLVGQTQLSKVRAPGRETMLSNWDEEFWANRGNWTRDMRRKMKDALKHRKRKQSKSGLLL
The description is as above.

A further assay concerns the target T4, GST-Npa2p (S. cerevisiae, UniProt P47108 1-1174).
T4 construct: Npa2p, S. cerevisiae; NPA2 ORF inserted into XhoI-digested pGEX-6P1 (plasmid pRC58); source: E. coli Rosetta λDE3, purified (Glutathione Sepharose 4 FF)
T4 sequence (looked up): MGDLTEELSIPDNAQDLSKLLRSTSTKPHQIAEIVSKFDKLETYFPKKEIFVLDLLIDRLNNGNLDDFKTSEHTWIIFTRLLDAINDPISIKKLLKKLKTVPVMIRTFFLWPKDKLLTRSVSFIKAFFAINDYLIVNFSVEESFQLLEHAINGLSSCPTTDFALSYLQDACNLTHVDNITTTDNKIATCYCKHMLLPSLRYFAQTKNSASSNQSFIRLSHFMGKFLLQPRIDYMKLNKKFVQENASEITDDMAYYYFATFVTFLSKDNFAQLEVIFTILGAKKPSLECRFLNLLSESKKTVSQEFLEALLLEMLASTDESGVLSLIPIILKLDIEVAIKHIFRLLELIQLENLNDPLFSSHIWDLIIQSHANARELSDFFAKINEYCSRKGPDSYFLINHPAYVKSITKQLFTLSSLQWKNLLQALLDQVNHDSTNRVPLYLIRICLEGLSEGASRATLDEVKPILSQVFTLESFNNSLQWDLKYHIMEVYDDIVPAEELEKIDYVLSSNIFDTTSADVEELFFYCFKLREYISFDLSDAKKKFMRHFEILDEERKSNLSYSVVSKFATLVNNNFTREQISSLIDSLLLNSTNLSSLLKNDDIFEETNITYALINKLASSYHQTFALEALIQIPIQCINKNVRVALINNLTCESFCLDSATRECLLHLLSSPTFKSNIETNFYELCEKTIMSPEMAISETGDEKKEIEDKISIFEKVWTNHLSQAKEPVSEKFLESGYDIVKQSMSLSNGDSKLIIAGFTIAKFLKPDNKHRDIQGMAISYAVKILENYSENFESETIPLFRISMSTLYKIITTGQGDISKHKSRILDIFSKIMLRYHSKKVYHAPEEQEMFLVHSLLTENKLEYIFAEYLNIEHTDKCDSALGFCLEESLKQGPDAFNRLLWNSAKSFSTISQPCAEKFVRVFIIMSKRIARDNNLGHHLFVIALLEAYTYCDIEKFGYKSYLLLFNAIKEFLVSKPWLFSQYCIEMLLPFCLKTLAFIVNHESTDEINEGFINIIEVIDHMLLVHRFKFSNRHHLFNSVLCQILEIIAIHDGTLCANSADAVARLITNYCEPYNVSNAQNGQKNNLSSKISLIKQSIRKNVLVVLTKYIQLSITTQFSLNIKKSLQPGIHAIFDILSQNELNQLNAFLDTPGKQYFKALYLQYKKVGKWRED
The assay can be described thus: co-IP; purified GST-tagged versions of the complex proteins tested in pairs by immunoprecipitation with specific antibodies; conditions not given; both purified.

B1: Dbp6p (protein, UniProt P53734 1-629)
chain: MFASRFDPSQLTAPAASAPEGIVGTTPPAIVPLKRQATESDNEEYGSHQDSDESSNSSSEEDEDRMQVDYGASEEDSSEVEEEESKPSTHSTVLSRFKQTVSLQERLGASDIAESKEDEGIEDEAASTHQLKQIPQPEFVKNPMNLNTNSLQFKSTGWLNTEKIYYDNSLIKPFSDYANELEAKLLQNICKNFSTNTFPIQSIILDSILPVLNFTLNVSKRNFTRRIGDILVNAATGSGKTLAYSIPIVQTLFKRQINRLRCIIIVPTKLLINQVYTTLTKLTQGTSLIVSIAKLENSLKDEHKKLSNLEPDILITTPGRLVDHLNMKSINLKNLKFLIIDEADRLLNQSFQGWCPKLMSHLKTDKLDTLPGNVIKMIFSATLTTNTEKLNGLNLYKPKLFLKQTDKLYQLPNKLNEFNINIPTAKSVYKPLILLYSICQFMAHSPIAAKILIFVKSNESSIRLSKLLQLICESRSQSSVLKNLQNLAVSINSVNSNNSKAENKKIVANFSHHSESAGITILITTDIMSRGIDINDITQVINYDPPMSSQQYVHRVGRTARANELGSAYNLLVGRGERTFFDDLNKDLDRDGKSVQPLELDFTLLESDSELYTSSLESLKNYHNNTAQA
For the molecule B1, in assay [1], the binding entry is recorded as “binds”.

B2: His-Dbp6p, P53734 1-629 (protein)
chain: MFASRFDPSQLTAPAASAPEGIVGTTPPAIVPLKRQATESDNEEYGSHQDSDESSNSSSEEDEDRMQVDYGASEEDSSEVEEEESKPSTHSTVLSRFKQTVSLQERLGASDIAESKEDEGIEDEAASTHQLKQIPQPEFVKNPMNLNTNSLQFKSTGWLNTEKIYYDNSLIKPFSDYANELEAKLLQNICKNFSTNTFPIQSIILDSILPVLNFTLNVSKRNFTRRIGDILVNAATGSGKTLAYSIPIVQTLFKRQINRLRCIIIVPTKLLINQVYTTLTKLTQGTSLIVSIAKLENSLKDEHKKLSNLEPDILITTPGRLVDHLNMKSINLKNLKFLIIDEADRLLNQSFQGWCPKLMSHLKTDKLDTLPGNVIKMIFSATLTTNTEKLNGLNLYKPKLFLKQTDKLYQLPNKLNEFNINIPTAKSVYKPLILLYSICQFMAHSPIAAKILIFVKSNESSIRLSKLLQLICESRSQSSVLKNLQNLAVSINSVNSNNSKAENKKIVANFSHHSESAGITILITTDIMSRGIDINDITQVINYDPPMSSQQYVHRVGRTARANELGSAYNLLVGRGERTFFDDLNKDLDRDGKSVQPLELDFTLLESDSELYTSSLESLKNYHNNTAQA
In the case of B2, in assay [2], the binding result was “no binding”.

B3: His-Dbp6p (natural protein, S. cerevisiae, UniProt P53734 1-629, looked up)
chain: MFASRFDPSQLTAPAASAPEGIVGTTPPAIVPLKRQATESDNEEYGSHQDSDESSNSSSEEDEDRMQVDYGASEEDSSEVEEEESKPSTHSTVLSRFKQTVSLQERLGASDIAESKEDEGIEDEAASTHQLKQIPQPEFVKNPMNLNTNSLQFKSTGWLNTEKIYYDNSLIKPFSDYANELEAKLLQNICKNFSTNTFPIQSIILDSILPVLNFTLNVSKRNFTRRIGDILVNAATGSGKTLAYSIPIVQTLFKRQINRLRCIIIVPTKLLINQVYTTLTKLTQGTSLIVSIAKLENSLKDEHKKLSNLEPDILITTPGRLVDHLNMKSINLKNLKFLIIDEADRLLNQSFQGWCPKLMSHLKTDKLDTLPGNVIKMIFSATLTTNTEKLNGLNLYKPKLFLKQTDKLYQLPNKLNEFNINIPTAKSVYKPLILLYSICQFMAHSPIAAKILIFVKSNESSIRLSKLLQLICESRSQSSVLKNLQNLAVSINSVNSNNSKAENKKIVANFSHHSESAGITILITTDIMSRGIDINDITQVINYDPPMSSQQYVHRVGRTARANELGSAYNLLVGRGERTFFDDLNKDLDRDGKSVQPLELDFTLLESDSELYTSSLESLKNYHNNTAQA
notes: Dbp6p, S. cerevisiae; DBP6 ORF cloned into a modified pET-15b (plasmid pET-DBP6); also called His-tagged Dbp6p; source: E. coli Rosetta λDE3, purified (HisTrap FF, Superdex 200)
On to B3, for which the binding entry in assay [3] was “no binding”.

B4: GST-Nop8p (protein, UniProt Q08287 1-484)
chain: MDSVIQKRIFVGNIFHNADDCYSELLDRFGKFGDCQDFQFEKHNHFAFIDIRFNDEADFNKLRKSFNNVKFKGNILKVDEAKPNWESTWAVQHAKDLKEDIILNAKMKKKNWQHYKKMENVAKSWKDHKEVIAGRMREAPRKRSQLRNITFRINVNGSLKVYKCYKTKLWGYERNKELNDLVYKFTNNFWKNGYNHIVDRLDYSRAVKTVRFKNGLKQLTVSKDENVCSGEMDSDENMSEEEKEKNNVILNDLLKDFDFDKPMTLNDSDEELLTEQRKGEEEEEEEEEKEVNAPEYENVNKTKDQSTLPQEKPEERKEQDEGDGQEDNEFIPTFTKEIGQGTISNTETLRNLFNPNEAEPVSQFKLIEDSDNDIDHAKDVDVNQLEEEVSKSSDTLGLTSAPVPHVSRDKDNKNFLFFPHLQSPFLVGQTQLSKVRAPGRETMLSNWDEEFWANRGNWTRDMRRKMKDALKHRKRKQSKSGLLL
In the case of B4, the binding result with GST-Npa2p was “no binding”.

The values above are taken from publication PMC6136799, “The Npa1p complex chaperones the assembly of the earliest eukaryotic large ribosomal subunit precursor” (PLoS Genetics, 2018).
